The campaign covered roughly 5,600 compounds. About 780 (14%) were called active. The inconclusive results got no clear call from the source; some entries with a clear call stand among them for comparison.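 How the source made its calls: active means mean signal decrease across replicates above about 35% based on untreated-well scatter, with enough replicates individually passing (limit read from the data); inconclusive means no rule stated though some were filed; inactive means the rest.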
Experiment: NIH3T3 cell viability loss – cherry-pick, single point, cytotoxicity control for T. cruzi proliferation inhibitor project, confirmation (AID 651742);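 further: 0% = median of neutral control wells and 100% = median of positive control wells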
Details: NIH/3T3 viability, CellTiter-Glo ATP luminescence, 90 h; at 8.35 µM; hits give high values

Row | SMILES | cytotoxicity (signal decrease)
1 | C[C@H](CO)N1C[C@H](C)[C@H](CN(C)S(=O)(=O)c2ccc(F)cc2)Oc2cc(C3=CCCCC3)ccc2S1(=O)=O | active: 46.1%
2 | C[C@@H]1CN([C@H](C)CO)S(=O)(=O)c2ccc(C3=CCCC3)cc2O[C@@H]1CN(C)C(=O)C1CCCCC1 | inconclusive: 35.9%
3 | COc1ccccc1-c1ccc2c(c1)O[C@@H](CN(C)S(=O)(=O)c1ccccc1)[C@@H](C)CN([C@@H](C)CO)S2(=O)=O | inconclusive: 37%
4 | O=C(CN1CCOCC1)N1CCCCN2[C@@H](CO)[C@@H](c3ccc(-c4ccccc4)cc3)[C@@H]2C1 | inactive: -4.83%
5 | CC(C)CC#Cc1ccc2c(c1)O[C@H](CN(C)C(=O)c1ccccc1F)[C@H](C)CN([C@H](C)CO)S2(=O)=O | inconclusive: 34.8%
6 | C[C@H](CO)N1C[C@H](C)[C@@H](CN(C)CC2CCCC2)Oc2ncc(C#CCc3ccccc3)cc2C1=O | inconclusive: 39.7%
7 | COc1ccc(NC(=O)N2CCCCN3[C@H](CO)[C@H](c4ccc(C#CCC(C)C)cc4)[C@@H]3C2)cc1 | inconclusive: 34.2%
8 | COc1cccc(S(=O)(=O)N(C)C[C@@H]2Oc3ncc(/C=C/c4ccccc4)cc3C(=O)N([C@H](C)CO)C[C@@H]2C)c1 | inconclusive: 37.2%
9 | Cc1ccc(S(=O)(=O)N2C[C@@H](O)COC[C@@H]3O[C@H](CC(=O)NCc4ccc(Cl)c(Cl)c4)CC[C@H]32)cc1 | inactive: 3.54%
10 | C[C@H](CO)N1C[C@H](C)[C@@H](CN(C)C(=O)NC2CCCCC2)OCCCC[C@H](C)Oc2ccc(NC(=O)Nc3ccc(F)cc3)cc2C1=O | inactive: 11.7%
11 | C[C@H](CO)N1C[C@H](C)[C@H](CN(C)C(=O)Nc2ccc(C(F)(F)F)cc2)OCCCC[C@H](C)Oc2ccc(N(C)C)cc2C1=O | inactive: -3.82%
12 | CO[C@@H](CN(C)S(=O)(=O)c1cccc(Cl)c1)[C@H](C)CN([C@@H](C)CO)S(=O)(=O)c1ccc(Cl)cc1 | inconclusive: 34.1%
13 | Cc1ccc(-c2ccc3c(c2)O[C@H](CN(C)Cc2ccncc2)[C@H](C)CN([C@@H](C)CO)S3(=O)=O)cc1 | inconclusive: 35.6%
14 | C[C@@H]1CCCCO[C@@H](CN(C)Cc2ccccc2)[C@H](C)CN([C@H](C)CO)C(=O)c2cc(NC(=O)Nc3cccc4ccccc34)ccc2O1 | inconclusive: 34.6%
15 | CC(C)C#Cc1ccc([C@@H]2[C@@H](CO)N3CCCCN(C(=O)Nc4ccccc4)C[C@H]23)cc1 | active: 38.6%
16 | COc1ccccc1C#Cc1ccc([C@@H]2[C@@H](C#N)N(C(=O)C3CCC3)[C@H]2CO)cc1 | inactive: -24.2%
17 | OC[C@@H]1[C@@H](c2ccc(-c3ccccc3F)cc2)[C@H]2CN(Cc3cccnc3)CCCCN12 | inconclusive: 35.7%
18 | C[C@@H]1CN([C@@H](C)CO)C(=O)c2cc(/C=C/c3ccccc3)cnc2O[C@H]1CN(C)Cc1ccc2c(c1)OCO2 | active: 58.5%
19 | COc1ccc(S(=O)(=O)N(C)C[C@@H]2Oc3ccc(NC(=O)Nc4ccc(C(F)(F)F)cc4)cc3C(=O)N([C@@H](C)CO)C[C@@H]2C)cc1 | inconclusive: 37.6%
20 | CC(C)C#Cc1ccc2c(c1)O[C@H](CN(C)Cc1cccnc1)[C@H](C)CN([C@@H](C)CO)S2(=O)=O | inconclusive: 44.5%
21 | O=C(CN1CCOCC1)N1CCCCN2[C@@H](CO)[C@@H](c3ccc(C#Cc4ccccc4F)cc3)[C@@H]2C1 | inconclusive: 34.5%
22 | C[C@H]1CN([C@@H](C)CO)S(=O)(=O)c2ccc(-c3cccc(C#N)c3)cc2O[C@H]1CN(C)C(=O)Nc1ccccc1F | active: 37.3%
23 | C[C@@H]1CN([C@@H](C)CO)S(=O)(=O)c2ccc(C#Cc3ccc(F)cc3)cc2O[C@H]1CN(C)S(=O)(=O)c1ccc(F)cc1 | inconclusive: 38%
24 | COCC(=O)N1CCCCN2[C@H](CO)[C@@H](c3ccc(C#Cc4ccc(OC)cc4)cc3)[C@@H]2C1 | inactive: 17.5%
25 | Cc1ccc(-c2ccc3c(c2)O[C@@H](CN(C)Cc2cccnc2)[C@@H](C)CN([C@@H](C)CO)S3(=O)=O)cc1 | active: 52.3%
26 | CCCC#Cc1ccc2c(c1)O[C@@H](CN(C)Cc1ccccn1)[C@@H](C)CN([C@H](C)CO)S2(=O)=O | inconclusive: 38.1%
